From PMC4336329 (PLoS ONE, 2015)
In all, about 310,000 compounds went through this assay and about 2,200 (0.71%) showed an effect of 50% or more. Effects have a minus sign here. Some of the results follow.

target: human ether-à-go-go-related gene (hERG) potassium channel (human, UniProt Q12809); assay: primary screen, population patch clamp on CHO cells stably expressing hERG
Sequence (Q12809 whole entry, looked up): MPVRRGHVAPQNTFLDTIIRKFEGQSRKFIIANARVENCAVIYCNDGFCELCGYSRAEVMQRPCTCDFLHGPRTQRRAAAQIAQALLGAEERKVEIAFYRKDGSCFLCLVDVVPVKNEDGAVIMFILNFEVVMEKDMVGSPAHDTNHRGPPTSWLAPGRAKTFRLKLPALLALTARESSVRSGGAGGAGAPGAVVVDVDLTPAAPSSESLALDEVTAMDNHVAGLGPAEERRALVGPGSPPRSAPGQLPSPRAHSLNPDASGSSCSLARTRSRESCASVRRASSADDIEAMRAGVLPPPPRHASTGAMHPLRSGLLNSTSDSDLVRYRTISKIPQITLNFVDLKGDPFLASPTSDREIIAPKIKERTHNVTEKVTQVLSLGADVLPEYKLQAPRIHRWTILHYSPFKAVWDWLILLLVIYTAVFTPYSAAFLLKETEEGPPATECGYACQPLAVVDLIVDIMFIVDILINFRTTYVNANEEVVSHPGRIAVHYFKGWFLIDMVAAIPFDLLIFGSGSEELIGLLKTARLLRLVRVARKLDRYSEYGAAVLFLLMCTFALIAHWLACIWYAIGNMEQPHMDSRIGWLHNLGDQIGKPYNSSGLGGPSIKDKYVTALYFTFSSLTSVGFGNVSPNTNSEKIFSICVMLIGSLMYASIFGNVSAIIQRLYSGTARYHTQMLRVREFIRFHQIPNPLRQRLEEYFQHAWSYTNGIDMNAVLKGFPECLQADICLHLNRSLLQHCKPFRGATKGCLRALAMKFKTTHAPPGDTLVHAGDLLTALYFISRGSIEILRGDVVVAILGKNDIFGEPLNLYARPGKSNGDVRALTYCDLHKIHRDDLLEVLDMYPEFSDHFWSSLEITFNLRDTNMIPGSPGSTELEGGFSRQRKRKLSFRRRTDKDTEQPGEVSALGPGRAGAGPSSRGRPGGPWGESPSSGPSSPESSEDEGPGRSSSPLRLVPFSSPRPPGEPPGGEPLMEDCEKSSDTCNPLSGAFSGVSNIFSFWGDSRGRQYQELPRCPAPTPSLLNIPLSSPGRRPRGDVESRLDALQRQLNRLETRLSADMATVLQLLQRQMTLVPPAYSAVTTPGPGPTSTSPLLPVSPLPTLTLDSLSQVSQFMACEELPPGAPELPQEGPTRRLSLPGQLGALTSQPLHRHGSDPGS

SMILES | hERG current change (%, negative = inhibition) at 1uM [%]
COc1ccccc1N1CCN(C(=O)CCCC2=NS(=O)(=O)c3ccccc3N2)CC1 | 6.38
CCOC(=O)c1ccc(NC(=O)Cn2nnc(-c3ccccc3C)n2)cc1 | 2.64
CC(Sc1n[nH]c(=O)[nH]c1=O)C(=O)OCc1ccccc1 (stereo not shown) | 11.6
CC(C)Oc1ccccc1-c1cc(C(=O)N/N=C/c2cccnc2)c2ccccc2n1 | 8.24
COc1ccc(N2CCN(c3nc4cc(C)ccc4cc3C=O)CC2)cc1 | 13.5
C=C(C)c1cccc(C(C)(C)NC(=O)NC2CCCC2)c1 | 5.23
CSC1=C(C#N)C(=O)NC(c2ccccc2O)S1 (stereo not shown) | 12.8
COc1cc2c(cc1OC)C(c1cccc([N+](=O)[O-])c1)=NCC2 | 11.8
CCOc1ccc(NC(=O)CCN2CCN(C)CC2)cc1 | 10.5
CCOc1cc(C(=O)N2CCOCC2)ccc1OCc1ccccc1 | 10.7
COc1ccc(Oc2c(Cl)cnn(-c3ccc(Cl)c(Cl)c3)c2=O)cc1 | 7.61
CC(C)(C)c1ccc(NC(=O)C2=CC=CN3CCS(=O)(=O)N=C23)cc1 | 1.77
Cc1ccc(CNC(=O)c2ccc(N3CCC4(CC3)CC(c3cccc(Br)c3)=NO4)c(NC(=O)c3ccco3)c2)cc1 | 12.2
O=C1c2ccccc2C(=O)N1Cc1nc2ccccc2c(=O)n1-c1ccccn1 | 8.72
Cc1ccc2c(c1)NC(=O)c1cc([N+](=O)[O-])ccc1O2 | 17.1
N#Cc1ccc(Cl)cc1NC(=O)COC(=O)c1ccc(S(=O)(=O)N2CCCC2)cc1 | 6.03
Cc1cccc(C)c1NC(=O)Cn1nc(C)n2cccc2c1=O | 5.51
CCOC(=O)/C=c1\s/c(=C\c2ccc(C)cc2)c(=O)n1CC(=O)NCc1ccco1 | 12.5
O=C(NCCc1c[nH]c2ccccc12)C(=O)c1c[nH]c2ccccc12 | 7.17
O=C(O)C1CC=CCC1C(=O)NNS(=O)(=O)c1ccccc1 (stereo not shown) | 11.6
COCCn1c(C)cc(C(=O)COC(=O)c2cncc(Br)c2)c1C | -7.42
O=C(O)c1ccc(Cn2cc(/C=C\[N+](=O)[O-])c3ccccc32)o1 | 16.3

SMILES | hERG current change (%, negative = inhibition) at 1uM [%]
COc1cccc(CN2CCCC(CNC(=O)c3ccc(F)cc3)C2)c1OC (stereo not shown) | -12.6
Cc1cc(NC(=O)COC(=O)[C@H](C)NC(=O)c2ccccc2)no1 | 3.32
COc1ccc(CNC(=O)CCC(=O)N2C[C@H]3C[C@H](C2)c2cccc(=O)n2C3)cc1 | 9.09
Cn1ncc(Br)c1C(=O)OCC(=O)Nc1nc(-c2ccccc2)cs1 | 11.5
COC(=O)c1c(NC(=O)COC(=O)[C@@H](NS(=O)(=O)c2ccccc2)C(C)C)sc2c1CCC2 | 0.445
Cc1ccccc1NS(=O)(=O)c1cc(S(C)(=O)=O)ccc1Cl | 4.74
CC(c1ccccc1)n1c(SCC(=O)Nc2ccccc2)n[nH]c1=O (stereo not shown) | 9.19
O=C(NCCN1CCc2ccccc2C1)C1CC(=O)N(C2CCCC2)C1 (stereo not shown) | 14.8
COC(=O)c1ccc(C2NC(=O)c3ccccc3O2)cc1 (stereo not shown) | 10.5
CN(C)C(=O)N1CCC(C(=O)NCC2CCCO2)CC1 (stereo not shown) | -0.682
O=C(NCc1ccccc1)c1onc(CSc2ccc(Cl)cc2)c1C(=O)NCC1CC1 | 7.15
O=S(=O)(Nc1ccncc1)c1ccc(Cl)c(Cl)c1 | 13.4
COCCCn1c(SCC(=O)Nc2ccccc2F)nnc1-c1ccoc1C | 10.3
COc1ccccc1C(=O)Nc1ccnn1C1CCN(C)CC1 | 4.47
O=C(Cc1ccccc1)Nn1cnc2ccccc21 | 11.8
CCOc1ccc(/C=C2\SC(N3CCc4ccccc4C3)=NC2=O)cc1 | 13.8
O=C(NC(=S)NC(=O)c1ccccc1F)c1ccccc1F | 0.71
CCOC(=O)/C(=N\Nc1ccccc1Cl)N(C)C1CCS(=O)(=O)C1 (stereo not shown) | -0.595
CCOC(=O)CCc1c(C)nc(SCC(=O)O)c(C#N)c1C | 14.1
COc1ccc2c(c1)C(=O)N(c1ccccc1C)C(=O)C2(C)C | 4.01
CC(=C\c1ccccc1)/C=C1/SC(=S)N(CCC(=O)Nc2ccccn2)C1=O | 6.53
CCn1nc(C)cc1-c1nnc(Sc2ncc([N+](=O)[O-])s2)n1C | 14.3

SMILES | hERG current change (%, negative = inhibition) at 1uM [%]
COc1ccc(/C=N/NC(=O)COc2cccc3ccccc23)c(C(=O)O)c1OC | 6
COc1ccc(CC2(CO)CCN(CC3=Cc4cc(Cl)ccc4OC3)CC2)cc1 | 3.16
Cc1nn(-c2ccc(N3CCOCC3)nn2)c(C)c1CCC(=O)NCc1ccccc1F | 18.4
Cc1cccc(N=CC=C2OC(C)(C)C(C)(C)O2)c1 | 11.2
COc1cc(SC)ccc1C(=O)OCC(=O)NC(=O)NC(C)C | 8.69
O=C(COc1ccc2ccccc2c1Br)NCc1ccccn1 | 16.3
CC(C)COc1ccc(C(=S)N2CCCC2)cc1 | 4.36
Cc1cccc(C(=O)NNC(=O)c2ccc(NS(=O)(=O)c3cccs3)cc2)c1C | 6.42
C=CCn1c(SCC(=O)NC23CC4CC(CC(C4)C2)C3)nc2cc(C(=O)O)ccc2c1=O | 8.87
CN(c1ccccc1C(=O)Nc1ccc(S(=O)(=O)N2CCCCC2)cc1)S(C)(=O)=O | 10.9
O=C(OCc1nnc(-c2ccccc2)o1)c1cc(S(=O)(=O)N2CCOCC2)ccc1F | 18.9
O=C1CCN(CCc2ccccc2)CCN1[C@H](CSc1ccccc1)Cc1ccccc1 | -44.6
OCCCNc1cc(-c2ccccc2)nc2cc(-c3ccc(F)cc3)nn12 | 13.2
Cc1cccc(C(=O)Nc2ccccc2NC(=O)c2cccc(C)c2)c1 | 14.9
CN(C)C(=O)CN1C(=O)C2CC=C(Cl)CC2C1=O (stereo not shown) | 5.78
O=C(Cn1ncc2c3ccccc3n(Cc3cccc(Cl)c3)c2c1=O)N1CCC2(CC1)OCCO2 | -8.92
COc1cccc(N2CC(C(=O)Nc3nnc(SCC(=O)N4CCOCC4)s3)CC2=O)c1 (stereo not shown) | 13.2
O=C(Nc1ccncc1)c1ccccc1F | 17.2
CC1c2ccsc2CCN1S(=O)(=O)c1ccccc1 (stereo not shown) | 8
COc1cc2c(cc1OC)CN(C(=O)Cn1ccccc1=O)CC2 | -1.68
COc1cccc(CNC(=O)CCCn2ncn3c(cc4occc43)c2=O)c1 | -10.5
C=C(C)C1CC=C(C)/C(=N\NC(=O)CNc2cccc3ccccc23)C1 (stereo not shown) | 2.43

SMILES | hERG current change (%, negative = inhibition) at 1uM [%]
COC(=O)c1c(-c2ccc(F)cc2)noc1N | -21.5
Cc1c(C(=O)N2CCCCC2CCN2CCCC2=O)oc2c(F)cccc12 (stereo not shown) | 7.69
O=C(NCCc1ccccc1)Nc1ccc2c(c1)OCO2 | 14.8
O=C(c1cnn2c(C(F)(F)F)cc(-c3cccs3)nc12)N1CCCC1 | 9.72
CCCn1c(SCc2nc(-c3cccs3)no2)nnc1-c1ccncc1 | 4.52
COc1ccc2[nH]c3c(=O)n(CCCCC(=O)NCCC(C)C)c(=S)[nH]c3c2c1 | 8.8
CC(C)(C)c1ccc(-c2nnc(SC3CCOC3=O)n2Cc2ccccc2)cc1 (stereo not shown) | -13.4
CN(CC(=O)Nc1ccccc1C(F)(F)F)C(=O)Cc1ccccc1F | 15.7
COCCCNC(=S)Nc1ccc(C)cc1 | 2.57
C/C(=C/c1ccccc1)C(=O)N1CCN(c2ccc(F)cc2)CC1 | -18.6
O=C(Nc1ccon1)c1ccccc1Cl | 11
O=C(CCNS(=O)(=O)c1ccc(Cl)cc1)N1CCN(c2ccccn2)CC1 | -0.754
CCC(=O)Oc1ccc(NC(=O)CSCc2ccccc2)cc1 | 8.66
CCc1ccc(NC(=O)CN(N=Nc2nonc2C)c2nonc2C)cc1 | 11.8
O=C(CSc1nc2[nH]ncc2c(=O)n1-c1ccc(Cl)c(Cl)c1)NCc1ccccc1Cl | 6.16
On1nnc2cc(C(F)(F)F)ccc21 | 8.9
O=S(=O)(c1ccc(Br)cc1)n1c(Cc2ccccc2)nc2ccccc21 | 5.53
CCOC(=O)C1=C(c2ccccc2)N=C2SCC(=O)N2C1c1cccc(OC)c1 (stereo not shown) | 9.9
C=CCn1c(SC(C)C(=O)NCc2ccc3c(c2)OCO3)nc2scc(-c3ccccc3)c2c1=O (stereo not shown) | -4.03
O=C(CNC(=O)Cc1ccc(Cl)cc1)NCC(=O)N1CCCCC1 | 16.6
Fc1cccc(NC(=S)Nc2ccc(Br)cc2)c1 | 6.17
CCC1CN(C(=O)N2CCC(C(=O)NCc3ccc(C)o3)CC2)c2ccccc2O1 (stereo not shown) | 4.5
